{"source": "the supplement of paper PMC10986608", "note": "The other results are listed elsewhere or left out. Single values are uncertain, as repeats are few or missing."}
{"tested_on": "Candida albicans DPL-15", "experiment": "growth (OD600) after compound treatment (apparently relative to screen median) (relative growth (fraction; screen median 1.02)); DPL-15 is a caspofungin-resistant clinical isolate; higher = more fungal growth (less antifungal activity)", "conditions": "25 µM; RPMI 1640; 48 h; 30 °C"}
{"molecule": "CCOc1ccccc1[C@H]1O[C@@H](c2cccc3ccccc23)C(C(=O)OC)=C1C(=O)OC", "growth": 1.24}
{"molecule": "COc1ccc(N2C(=O)C3=C(C(CC(C)C)=NCC(C)(C)N3)C2c2cccc(C(F)(F)F)c2)cc1", "note": "(centres undefined)", "growth": 0.906}
{"molecule": "COc1ccc(-n2nc3cc2COC[C@H](c2ccccc2)NC(=O)CC2(CCCCC2)CNC(=O)c2cccc-3c2)cc1", "growth": 1.15}
{"molecule": "CC(C)CC1=NCCNC2=C1C(c1cccc(C(F)(F)F)c1)NC2=O", "note": "(centres undefined)", "growth": 1.02}
{"molecule": "C[C@H]1C[C@H]2CC(=O)N3CCC[C@@H]3C(=O)N2[C@H]1c1ccccc1", "growth": 0.914}
{"molecule": "CC(=O)C1=C2C=CCCN2C(=O)NC1c1cc(C)cc(F)c1", "note": "(centres undefined)", "growth": 1.08}
{"molecule": "C#CCOC[C@@H](NC(=O)CC1(CNC(=O)c2cccc3cnnn23)CCCCC1)c1ccccc1", "growth": 1.09}
{"molecule": "CC(C)C1=C[C@H]2[C@H]3C(=O)C(c4ccc(O)cc4)=C[C@@]3(c3ccc(O)c(O)c3)[C@@H]1C(=O)[C@]2(C)O", "growth": 0.953}
{"molecule": "Cc1ccc(S(=O)(=O)Oc2c(C[C@@]34CCCCCCC3=Nc3ccccc34)occc2=O)cc1", "growth": 1.06}
{"molecule": "C=CC[C@@]12C[C@H]3[C@@H](O)[C@@](CC=C)(C1=O)C(=O)[C@@](C(=O)c1ccccc1)(C2=O)C3(C)C", "growth": 1.7}
{"molecule": "CC(C)c1cc2cc(O)cc(O)c2c(=O)o1", "growth": 0.983}
{"molecule": "COc1ccc([C@@]23Oc4cc(OC)cc(OC)c4[C@]2(NCc2ccccc2)C(=O)C[C@H]3c2ccccc2)cc1", "growth": 0.901}
{"molecule": "COC(=O)c1cc2c(c3c4cc(C)ccc4n(S(=O)(=O)c4ccc(C)cc4)c13)C(=O)N(Cc1ccccc1)C2", "growth": 1.1}
{"molecule": "Cc1cc(O)c2c(=O)cc(C(=O)O)oc2c1", "growth": 1.2}
{"molecule": "COC(=O)C/C=C/[C@H](C)[C@@H](NC(=O)[C@H](Cc1ccccc1)NC(=O)OC(C)(C)C)C1CC1", "growth": 1.09}
{"molecule": "CC(C)=CCC1=CC(O)CCC1=O", "note": "(centres undefined)", "growth": 1.08}
{"molecule": "Cc1cc(N)n(Cc2ccccc2C)n1", "growth": 0.991}
{"molecule": "COC(=O)c1[nH]c2ccc(OC)cc2c1[C@]12CCN(C(=O)Cc3ccccc3F)[C@H]1Nc1ccccc12", "growth": 1.03}
{"molecule": "C/C=C/C=C/C(=O)c1c(O)c(C)c(O)c(C)c1OC", "growth": 1.01}
{"molecule": "C[C@H]1[C@@H]2C[C@@]3(O[C@H](C4CCNCC4)N=C3C[C@@H]1c1ccccc1)N(Cc1ccncc1)C2=O", "growth": 1.23}
{"molecule": "COc1ccc(-c2cnc3c(-c4cccnc4)cnn3c2N)cc1", "growth": 1.01}
{"molecule": "COc1cccc(C2NC(=O)N3CCC=CC3=C2C(C)=O)c1", "note": "(centres undefined)", "growth": 1.02}
{"molecule": "CC(C)Cc1n[nH]c2c1[C@@H](c1ccc(F)cc1)N([C@H]1CC[C@H](N(C)C)CC1)C2=O", "growth": 1.01}
{"molecule": "C=CCN1c2cc(OC)cc(OC)c2[C@@]2(O)C(=O)C1(c1ccc(Br)cc1)[C@H](c1ccccc1)[C@@H]2C(=O)OC", "growth": 0.616}
{"molecule": "CC(C)CC1=NCCN(C)C2=C1C(c1ccccc1)NC2=O", "note": "(centres undefined)", "growth": 1.12}
{"molecule": "CCN(CC)C(=O)c1nnc(C(=O)OC)c2c1[nH]c1ccccc12", "growth": 1.16}
{"molecule": "COC(=O)[C@@]12Oc3ccc(-c4ccc(C)o4)c(O)c3C(=O)C1=C(N)C[C@H](C)[C@H]2O", "growth": 1.14}
{"molecule": "COc1ccc(/C=C/[C@H]2c3ccc(OC)cc3O[C@@H]3c4ccc(OC)cc4O[C@@H](c4ccc(OC)cc4)[C@@H]32)cc1", "growth": 1.06}
{"molecule": "CC(=O)C1=C2C=CCCN2C(=O)NC1c1ccc(F)c(F)c1", "note": "(centres undefined)", "growth": 1.07}
{"molecule": "CC1=CC[C@@H](C)OC2(C1)C(=O)Nc1ccccc12", "note": "(some centres undefined)", "growth": 0.945}
{"molecule": "COC(=O)C1=C(O)C(C)(Cc2ccccc2)C(=O)C(C)=C1C", "note": "(centres undefined)", "growth": 1.07}
{"molecule": "COC(=O)c1c2n[nH]c1-c1cccc(c1)C(=O)NCC1(CCCCC1)CC(=O)NCCC2", "growth": 1.03}
{"molecule": "COC(=O)CCC[C@H](C)[C@@H](NS(=O)(=O)c1ccc(C)cc1)C(C)(C)C", "growth": 0.848}
{"molecule": "Cc1ccc(C2C3=C(NC(C)(C)CN=C3c3ccccc3)C(=O)N2c2ccccc2)cc1", "note": "(centres undefined)", "growth": 0.977}
{"molecule": "C=C(C)CC[C@H](Cc1c(O)cc(O)c2c1O[C@H](c1ccc(O)cc1O)CC2=O)C(=C)C", "growth": 0.736}
{"molecule": "C#CCOC[C@H](NC(=O)[C@@H]1C[C@@H](O)CN1C(=O)c1cccc2cnnn12)c1ccccc1", "growth": 1.17}
{"molecule": "COC(=O)C1=C(C)N(Cc2ccccc2)C(NCC2CC2)=NC1c1ccccc1", "note": "(centres undefined)", "growth": 1.01}
{"molecule": "CC(=O)c1c(O)cc(O)cc1Br", "growth": 1.2}
{"molecule": "O=c1c2ccccc2oc2c(O)cccc12", "growth": 0.828}
{"molecule": "COc1cccc(C2NC(=S)N(Cc3ccc(Br)cc3)C(C)=C2C(C)=O)c1", "note": "(centres undefined)", "growth": 0.847}
{"molecule": "COc1ccc(-c2cnc3c(-c4ccc(F)cc4)cnn3c2N)cc1", "growth": 1.14}
{"molecule": "CCCC[C@]12Cc3cc(OC)c(OC)cc3[C@H](O1)C1=C(CC(C)(C)CC1=O)O2", "growth": 0.893}
{"molecule": "O=C(c1c(O)cc(O)cc1Nc1ccnn1CC1CCCCC1)N1Cc2cn[nH]c2C1", "growth": 0.98}
{"molecule": "COCn1c2ccccc2c2nnc(C(C)=O)nc21", "growth": 1.12}
{"molecule": "CC(C)Cc1n[nH]c2c1C(c1ccccc1Cl)N(c1ccc(N(C)C)cc1)C2=O", "note": "(centres undefined)", "growth": 0.982}
{"molecule": "Cc1ccc(/C=C/c2cc(/C=C/c3ccc(C)cc3)[nH]n2)cc1", "growth": 1.16}
{"molecule": "CCCN1C(=O)c2[nH]nc(C)c2C1c1ccc(C)cc1", "note": "(centres undefined)", "growth": 0.926}
{"molecule": "Cc1ccc(C2NC(=O)c3c2c(C(C)C)nn3-c2ccc(F)cc2)cc1", "note": "(centres undefined)", "growth": 1.05}
{"molecule": "C=CCOC(=O)/C=C/NC(=O)c1ccccn1", "growth": 1.11}
{"molecule": "C=CCN1C(=O)C2=C(C(CC(C)C)=NCCN2)C1c1ccc(Br)cc1", "note": "(centres undefined)", "growth": 1}
{"molecule": "CCOC(=O)c1nnc(-c2ccccc2NC(=O)OC(C)(C)C)c(=O)[nH]1", "growth": 0.964}
{"molecule": "C=CCN1C(=O)C2=C(C(C)=NCCN2C)C1c1ccc2c(c1)OCO2", "note": "(centres undefined)", "growth": 1.11}
{"molecule": "C=CCN1C(=O)c2[nH]nc(COC)c2C1c1ccc2c(c1)OCO2", "note": "(centres undefined)", "growth": 1.09}
{"molecule": "COC(=O)c1[nH]c2ccc(OC)cc2c1[C@]12CCN(C(=O)c3ccc(OC)cc3)[C@H]1Nc1ccccc12", "growth": 0.966}
